{
  "source": "PubChem BioAssay AID2675",
  "about": "(National Center for Advancing Translational Sciences (NCATS), 2010)",
  "note": "Out of some 280,000 compounds screened, about 100 (0.036%) were called active. Calls come from the whole dose curve; as a rule, active = well fitted inhibition curve with a large enough effect in the signal ratio, with a control signal flat (not every such curve was filed as active); inconclusive = small, poorly fitted or top-dose-only effect, or effect the other way, or a change in a side signal; inactive = no such curve, though single readings can be large or run the other way; the % refers to the signal ratio. Inconclusive means that the source gave no clear call. Where the call is inconclusive, the potency comes from a doubtful curve fit. A note “side channel” means that the fit belongs to a control or component signal, not to the main read-out. Potency is the fitted concentration of half-maximal effect; tags give direction and shape of the fitted curve or compound fluorescence and quenching.",
  "data": [
    {"target": "Muscleblind-like protein 1 (Homo sapiens) (UniProt Q9NR56)", "sequence (Q9NR56 whole entry, looked up)": "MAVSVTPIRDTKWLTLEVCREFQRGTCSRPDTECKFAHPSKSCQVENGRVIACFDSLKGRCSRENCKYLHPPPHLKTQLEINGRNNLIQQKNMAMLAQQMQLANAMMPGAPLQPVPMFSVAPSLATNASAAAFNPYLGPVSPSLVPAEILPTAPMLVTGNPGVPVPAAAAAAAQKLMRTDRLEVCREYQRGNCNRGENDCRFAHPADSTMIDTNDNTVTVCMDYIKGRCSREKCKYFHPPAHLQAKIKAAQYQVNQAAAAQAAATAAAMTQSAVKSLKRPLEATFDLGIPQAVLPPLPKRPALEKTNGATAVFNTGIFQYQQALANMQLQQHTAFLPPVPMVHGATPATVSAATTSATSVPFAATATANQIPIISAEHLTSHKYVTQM", "assay": "qHTS Assay for Inhibitors of MBNL1-poly(CUG) RNA binding", "conditions": "TR-FRET MBNL1-His/biotin-(CUG)12 binding, 665/545 ratio; series mostly up to 57.5 µM", "description": "NIH Chemical Genomics Center [NCGC] NIH Molecular Libraries Probe Production Centers Network [MLPCN] MLPCN Grant: R03 MH087421-01 Assay Submitter (PI): Charles Thornton NCGC Assay Overview: Expanded CTG repeats in the 3' untranslated region of the DM protein kinase (DMPK) gene causes type I myotonic dystrophy (DM1). DM1 is a multi-systemic disease with a prevalence of 1/7000. Clinical features include myotonia, progressive muscle weakness and wasting, cardiac arrhythmia, insulin resistance, hypersomnolence, cataracts, and other symptoms. The pathogenic effect of expanded CTG repeats stems from deleterious effects of the mutant transcript. CUGexp mRNA accumulates in nuclear foci and sequesters proteins of the muscleblind family, of which MBNL1 is the most common family member in skeletal muscles. The binding interaction between MBNL1 and CUGexp tracts leads to deregulation of alternative splicing and is therefore a key molecular step in the pathogenesis of DM1. To target this binding interaction, we optimized a protein-RNA binding assay in 1536-well format for identification of small molecule inhibitors of biotinylated (CUG)12 and his-tagged MBNL1 binding. Protein-RNA complex of MBNL1-His and Biotin-(CUG)12 captures the detection reagents terbium-labeled anti-His antibody and streptavidin conjugated XL665. This brings the terbium label within close proximity to XL665 to allow time-resolved fluorescence resonance energy transfer (TR-FRET). Inhibitors of MBNL1-(CUG)12 binding will disrupt TR-FRET.\nNCGC Assay Protocol Summary: This is a TR-FRET binding assay with MBNL1-His and Biotin-(CUG)12 RNA. The assay uses a ratiometric measurement. […] (3) Add 1 ul of terbium labeled anti-His antibody (0.055 ng/ul final concentration) (4) Add 1 ul of streptavidin-XL665 (5 nM final concentration) (5) Incubate 60 min at room temperature (6) Detect the assay plate in a EnVision plate reader (PerkinElmer) with Ex=340 nm, Em1=665 nm and Em2=545 nm. […]", "values": [
      {"smiles": "CS(=O)(=O)C1=NSC2=NC(=O)/C(=C\\c3ccc(OC(=O)c4ccco4)c(Br)c3)C(=N)N21", "Potency": "inconclusive: 28.2 µM [quencher, side channel, single point]"},
      {"smiles": "CC(C)(C)CC(C)(C)c1ccc(OCC(=O)N/N=C/c2ccc(S(=O)(=O)O)o2)cc1", "Potency": "inconclusive: 15.8 µM [quencher, side channel, partial curve]"},
      {"smiles": "CC(c1ccccc1)N1C(=O)c2ccc(C(=O)Nc3ccccc3C(=O)O)cc2C1=O", "note": "(stereo not drawn)", "Potency": "inconclusive: 28.2 µM [quencher, side channel, single point]"}
    ]}
  ]
}
